# Measured values from the supplement of paper PMC11417369.
# ± gives the standard deviation of the averaged measurements. The list shows a part of the results.
# Tested on: PfAP2-EXP AP2 domain (GST-tagged)
# Test: gcPBM binding intensity (ln(normalized median fluorescence intensity)); higher = stronger DNA binding
# Summary of the method: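 An Agilent 4 × 180k array carrying primer-extended double-stranded 36-bp intergenic genomic probes and negative controls received GST-tagged P. falciparum DNA-binding domains expressed in E. coli, about 25 μg on average, for 1 h. The binding buffer contained 1× PBS, 1% milk, 0.2 mg/ml BSA, 0.5% salmon testes DNA and 0.03% Triton X-100. Binding intensity is the top Masliner-normalised natural-log median intensity across replicate spots of either probe orientation, read after Alexa488 anti-GST antibody staining and a 488 nm scan.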
row,Sequence,gcPBM binding intensity (ln)
1,TGGAGGATAGTTCACAGTACCCAGAAACTCTACGGA [XGTACX_site2560],8.6 ± 0.41
2,ATAATATATTTATGTTGTACAAGGAAAATTTTGAAA [XGTACX_site3472],9.13 ± 0.35
3,GAAATGGAAAAATATACATGCGCATATAAATTAATA [TGCATGCA_site834],8.71 ± 0.4
4,ATCATATGTATGCATACACACAAAAAATTATATATA [CACACA_site398],8.59 ± 0.49
5,TATAATGATATAACAACACACATGTATGTATTATTA [CACACA_site230],8.22 ± 0.33
6,TCTTATATATGCTTAAATATATTATATTTATTTGAA [CACACA_negctrl_site1757],8.29 ± 0.41
7,TTATTTATGATATATACACACTAACATTATTTATCC [CACACA_site6720],8.49 ± 0.4
8,TGTATATATCAATGTACACACATGCGTATGTTCGTT [CACACA_site7654],8.62 ± 0.28
9,TATAAAAAAAATTGCACACATATTATACAGGACGAC [CACACA_site701],9.19 ± 0.23
10,AAAATATATATAACTTGTACATATACATACGTATAT [XGTACX_site4570],8.27 ± 0.26
11,AATATATGGTTCCTTGATATTAAATTCAATTTAATG [CACACA_negctrl_site71],8.41 ± 0.52
12,TGTGTATATGTGCAAAGTACAAAAAAGAAATTATTT [XGTACX_site7569],8.66 ± 0.41
13,TAGTATTGTAAAAAAAAAAAAGAAAAAAAAAAAAAA [CACACA_negctrl_site977],8.24 ± 0.33
14,TAAATCTATATCATCACACACACATACATAAATATA [CACACA_site6228],8.6 ± 0.61
15,TGGATGTTAATATAGTGTACATTTATAAGTCAGTAT [XGTACX_site2949],8.66 ± 0.35
16,GTGGAAAAAAATAATTGTACACAATAATAAATATAT [XGTACX_site2414],8.58 ± 0.28
17,ATGTAATATATGCGGAAATATATTCACAAGACGTCA [CACACA_negctrl_site373],8.63 ± 0.68
18,GTCAAAAGTTTTTAAGGTACACTTATTTTATTATAA [XGTACX_site7004],8.47 ± 0.26
19,GAAAAAAAATCCAAGATGCACTATTATTACAAAAAT [GTGCAC_site9516],8.69 ± 0.33
20,ACCTTTATTGTATGAACACACATAAGCTGATACATC [CACACA_site4028],9.04 ± 0.44
21,CACTAAACATATACACGTACATGCAACGGATTTTTT [XGTACX_site461],8.74 ± 0.3
22,AACGAACACTATTACACACATACATACATATGTATG [CACACA_site1859],8.74 ± 0.46
23,TTGTTTATTTGTAAAGCTAACAAGAAATGTGAATAT [CACACA_negctrl_site931],8.64 ± 0.42

row,Sequence,gcPBM binding intensity (ln)
1,TATACATAAAAATGATGTACATATAATATATATATA [XGTACX_site3863],9.37 ± 0.2
2,TTATTATTATAAAATTGTACTTGGTATATTAACATA [XGTACX_site5829],8.15 ± 0.3
3,TATATAATTATTTATTGTACACTCAAATCGATAAGG [XGTACX_site3216],8.73 ± 0.31
4,ATATAAATATATTTTACACACAATGGAGAAAAAAAT [CACACA_site6450],8.78 ± 0.56
5,GGATTAATATATTTACCACACACCCATTTCGATTTT [CACACA_site9200],8.8 ± 0.49
6,ATCTTGAAGATTATTTGTACACAAAAGTTAAAATAT [XGTACX_site242],8.36 ± 0.29
7,TATTTATAAATATAAACACACAACATTCTATGCATA [CACACA_site3243],8.45 ± 0.52
8,AATGTATTATGTCTTCGTACACATAAATAAATAAAT [XGTACX_site4004],8.51 ± 0.37
9,TAAAGGAAATAAAAAACATGCAAATATGAAATATAT [TGCATGCA_site745],8.91 ± 0.35
10,AATTATAAATTGGACACACACATAAAAAATATGTAC [CACACA_site221],8.6 ± 0.39
11,TAAAAAAAAACATGTGCACACGTTTTATCTACATAA [CACACA_site2336],8.46 ± 0.23
12,ATACATAATAACTCCTGTACTTAAAAATGTATATAT [XGTACX_site1071],8.51 ± 0.31
13,TTACATATTATACGAAGTACGTACAAATACTTATAT [XGTACX_site8598],8.6 ± 0.26
14,TTGCATTGTCCATGCGCACACACTACTAGAATAATA [CACACA_site3678],8.56 ± 0.36
15,TTTTTTTTTTTTTTTTTTAAACACCTCAAAAAAAAA [CACACA_negctrl_site807],8.04 ± 0.36
16,ACCTTATTTAGTTATAGTACACAAAGTATTAAACAT [XGTACX_site8418],9.57 ± 0.64
17,TTTTTTTTTTTCTTCACACACAGTACTACTATTTAT [CACACA_site2409],8.79 ± 0.45
18,GCGAATAATATGGACATACACACATATACATACATA [CACACA_site2115],8.88 ± 0.43
19,TATATATATTTTTGTGTGCACTATAATATGAAAATA,9.22 ± 0.38
20,TCATTTATTGAGGAATGTACACGTAAAATTTAATAA [XGTACX_site4086],8.88 ± 0.33
21,TTTTTTTTTTTTTTATGTACATATATATATTTTATT [XGTACX_site6915],8.61 ± 0.6
22,ATTTTTTTTTTTTTTTTCTTTTTTCTTCTTTTTTTT [CACACA_negctrl_site1223],8.31 ± 0.58
23,ATATATATTATAAAATGTACAAATGTTATATAAAAT [XGTACX_site4750],8.85 ± 0.45

row,Sequence,gcPBM binding intensity (ln)
1,TATAATGTTGATAATAGTACGTATGAGTTCAAAAAA [XGTACX_site988],8.64 ± 0.46
2,AAATAGAGAAATACAAGTACATACTAAACCAATCTA [XGTACX_site2780],8.64 ± 0.48
3,TTCTTTGTAGTATATTAACACACAACTGTTTATAAT [CACACA_site9305],8.64 ± 0.38
4,CAAATCAAAATTAATTAACACACAATTTTAATATTC [CACACA_site8641],8.22 ± 0.4
5,AAAGGATATAATACCATACACACATTTATAAAATAA [CACACA_site1931],8.69 ± 0.29
6,AAAAGAAAATATATGTGTACTAAAATATATATATAT [XGTACX_site3817],9.99 ± 0.29
7,ACTTTTATTCGCTTACGTACATATATTATATATTAT [XGTACX_site4459],9.49 ± 0.68
8,TACCTACACTTTTGGAGTACAATTAAAAAAAAAAAA [XGTACX_site1403],8.31 ± 0.38
9,TTTAAAGTAATAAAGTGTACAAAAATAAATTCAGCT [XGTACX_site8651],9.03 ± 0.54
10,GTTTATTAAACATTAGTGCAATTTTAATCCATTCTA,8.27 ± 0.29
11,TTAATCCTTTTTAAAAGTACACATATATATATATAT [XGTACX_site962],10.2 ± 0.38
12,TATATATATATATAATGTACAGAAAAAAAAAAAAAA [XGTACX_site6141],9.95 ± 0.17
13,ATATTATATATTTGATGTACATTGAATGAGAGAGAA [XGTACX_site3324],9.08 ± 0.2
14,AAATCATGTTGAAGGGGTACAAAATATGTAATGTTG [XGTACX_site6222],8.77 ± 0.36
15,ATAATAAATGATAGCACACATATGTACATAAATACA [CACACA_site4634],8.93 ± 0.33
16,AACATATAAAAATGTGCACACACACCCATATATATA [CACACA_site1525],8.79 ± 0.15
17,TATCTTAACAATTAGTGTACAGATAACCAATTAAAA [XGTACX_site3184],8.32 ± 0.42
18,CTTTGTGGTATAGATACACACTATATTAAGATGAAC [CACACA_site5215],8.34 ± 0.41
19,TAAAATAAAAATATAGTGCACAGATTTTGATATTTT [GTGCAC_site9696],8.69 ± 0.092
20,CACATTATGTATCATACACACAAATAGATATATAAC [CACACA_site6434],8.72 ± 0.38
21,TGAAGGTTTCAAAAACGTACAAAAAAAAATGTTAGT [XGTACX_site8803],8.78 ± 0.55
22,TTTAGAAATAAATACACACATACATTTTTGTATACA [CACACA_site718],8.21 ± 0.38
23,TTTTTTTTTTATGGTACACACACGCGTATGGTTGCA [CACACA_site1876],8.71 ± 0.42

row,Sequence,gcPBM binding intensity (ln)
1,TGAAAAAAAAAATGCACACGCATACAGATAATATGT [CACACA_site4526],8.78 ± 0.48
2,AATAATAATAGAAACACACACACATTTTTAAGAATA [CACACA_site6692],8.62 ± 0.56
3,ATTATTGCAATTTAATGTACATAATACAAATTTGCC [XGTACX_site2729],8.87 ± 0.37
4,AATGAATAAATAAACACACACACATATATATATATG [CACACA_site18],8.84 ± 0.46
5,TATATTCAAAAAAATTCATTTCTGATTTTTTTTTTT [CACACA_negctrl_site1085],8.1 ± 0.55
6,TATACGTATACCTATACACACATATATATATATATA [CACACA_site1273],9.97 ± 0.42
7,GATGAAATATCATTACGTACACAATAGTTTGTATTT [XGTACX_site5143],8.47 ± 0.26
8,CTTGTGCTTTATAGGGTGCACATTTTGTTTTGGTAA [GTGCAC_site9899],9.73 ± 1
9,TGAACACATACATACACACACACAAAAAAAAAAAAA [CACACA_site392],8.27 ± 0.59
10,TTATTAATTATATATAGTACACATTTCACAGATGGG [XGTACX_site2349],8.61 ± 0.33
11,TTTTTTTTTTTTTTTGGTACACATTTTGGTTAATGG [XGTACX_site5109],7.895 ± 0.064
12,AAAATTATGCAGTAGGTGCAATACCCTCGGCTTTTT [GTGCAC_site9556],8.59 ± 0.19
13,ATAAAAAGGTTTAAAAAAAAAAAAAAAAAAAAAAAA [CACACA_negctrl_site412],7.96 ± 0.38
14,AATAATAATTTAAAAAGTACATTCTAATAAACACGT [XGTACX_site1444],8.72 ± 0.42
15,TACTTATTTGATTGGGTGCATATATATAGTATGTAT [GTGCAC_site9845],8.97 ± 0.11
16,AATATCTGAAAATAAAGTACAAACATATTATAAATA [XGTACX_site5738],8.57 ± 0.33
17,TATTTCAAATGTTATGTGCACATATTAATCCTACTT [GTGCAC_site9738],8.71 ± 0.32
18,AAATAAAATAAAATAAAATAAAATAAAATAAAATAA [XGTACX_negctrl_site142],8.49 ± 0.28
19,AAAAAAAAACACGCATGTACATAAAAATAATCATAC [XGTACX_site1086],8.96 ± 0.3
20,TTATTTATGAGGGTGACACACAAAAGAGTGTTAAGA [CACACA_site277],8.44 ± 0.36
